From PubChem BioAssay AID1963576 (National Center for Advancing Translational Sciences (NCATS), 2024)
The campaign covered roughly 46,000 compounds. About 60 (0.1%) were called active. Another 3% or so got no clear call; they are omitted. Calls follow the shape of the dose curve; as a rule, active = well fitted inhibition curve with a large enough effect; inconclusive = small, poorly fitted or top-dose-only effect; inactive = no such curve, though single readings can be large or run the other way. Some of the results follow.

Experiment: Primary qHTS assay for Inhibitors of ovarian cancer metastasis using an organotypic tumor microenvironment (TME) model. Also: nearly all actives have a fitted effect of over 65% in size.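 As to activity change, negative = inhibition: plate controls were DMSO wells for no effect and tomatine positive control wells for full effect.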
Details: SKOV3ip1-GFP adhesion/invasion on 3D omental model, fluorescence; series mostly up to 45.8 µM; activity change, negative = inhibition: at the top concentration
How it was run: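 Adhesion/invasion was scored as fixed GFP-labeled SKOV3ip1 cell counts (488/509 nm), normalized to DMSO and tomatine controls. Cancer cells in serum-free medium, with four compound doses (0.36-46 umol/L), sat 2 hr at RT then 16 hr at 37 C on a 48 hr fibroblast/mesothelial/ECM culture.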

Activity change, negative = inhibition, inactive:
Cc1ccc(S(=O)(=O)NCC2CCC(C(=O)NCc3ccc(F)cc3)CC2)cc1 (configuration not stated) 14.5%, CCc1ccc(CNC(=O)c2cc3cc(S(=O)(=O)N4CCCCC4)ccc3n2C)cc1 34.1%, Nc1c(C(=O)NCc2ccc(Cl)cc2Cl)nnn1Cc1ccc(Br)cc1 -0.939%, NC[C@@H]1O[C@@H](O[C@H]2[C@@H](O)[C@H](O[C@@H]3[C@@H](O)[C@@H](N)C[C@H](N)[C@H]3O[C@H]3O[C@H](CN)[C@@H](O)[C@@H](O)[C@H]3N)O[C@H]2CO)[C@H](N)[C@@H](O)[C@@H]1O 37.3%, COc1cc2c(=O)n(Cc3ccccc3Cl)c(=O)n(CC(=O)Nc3ccccc3)c2cc1OC 18.8%, Cc1ccc2nc(NC(=O)CSc3nc4c(c(=O)n3-c3ccccc3)SCC4)sc2c1 -5.35%, O=C(CCC(=O)N1CC2CCCN2c2ccccc21)NCc1cccc(Cl)c1 (configuration not stated) -23.3%, O=C(Nc1ccc(F)cc1F)C(Cc1ccccc1)N1Cc2ccccc2C1=O (configuration not stated) 9.91%, COc1cccc(-n2c(-c3ccc(Cl)cc3)cc3c2CC(C)(C)CC3=O)c1 -4.08%, COc1ccc(C)cc1NC(=O)C1CCN(S(=O)(=O)c2c(C)noc2/C=C/c2ccco2)CC1 -6.27%, CCOc1ccc(NC(=O)CCC(=O)N2CC(C)Oc3ccc(C)cc32)cc1 (configuration not stated) 2.77%, COc1ccc(CN2C(=O)c3oc4ccc(F)cc4c(=O)c3C2c2ccc(O)cc2)cc1 (configuration not stated) 13.6%, Cc1ccc(-c2nnc(SCC(=O)NC3CCCC3)nc2-c2ccc(C)cc2)cc1 -8.87%, Cc1ccc(C(=O)Nc2nc3ccc(S(=O)(=O)N4CCCC4)cc3s2)cc1 -3.49%, Cc1nc(N2CCOCC2)c2c(C(=O)NCCc3ccccc3)c(C)oc2n1 0.204%, Cc1ccc(C(=O)n2nc(-c3ccco3)nc2NCc2cccs2)cc1 -1.56%, O=C(CSc1nc2c(c(=O)[nH]1)CN(Cc1ccc(F)cc1)CC2)Nc1ccccc1Cl 1.26%, O=C(NCCc1ccccc1Cl)c1ccc2c(c1)nc1n2CCOC1 5.08%, O=C(NCCc1ccccc1)C1(c2cccs2)CCOCC1 7.52%, CN(C)S(=O)(=O)n1cc(/C=C(\NC(=O)c2ccccc2Cl)C(=O)NCCCn2ccnc2)c2ccccc21 4.66%, CCN(CC)CCNC(=O)c1nn(-c2ccc(OC)c(Cl)c2)c(=O)c2c1c1ccccc1n2C 2.51%, CCOC(=O)C1CCN(S(=O)(=O)c2cc3c4c(c2)CC(=O)N4CCC3)CC1 7.98%, CCCNC(=O)c1c(C)nn(-c2cccc(C)c2)c1-n1cccc1 -16.6%, COc1cc(OC)cc(-c2nc3nc(C)c(CCC(=O)Nc4ccc(F)cc4F)c(C)n3n2)c1 -3.69%, Cc1ccc(Cn2cc(C(=O)c3ccc(F)cc3)c(=O)c3cc4c(cc32)OCCO4)cc1 -3.35%, CCc1ccccc1NC(=O)CSCc1cnn(-c2ccccc2)c1-n1cccc1 0.883%, Cc1ccc2c(c1)c1c(c(=O)n(-c3ccccc3C)c(=O)n1CC(=O)N1CCCC1)n2C -1.84%, Cc1ccccc1Nc1sc(C(=O)c2ccccc2)c(N)c1C(=O)NCc1ccc(Cl)cc1 -2.86%, Cc1ccc2ncc3c(-c4ccc(F)cc4)nn(-c4cccc(F)c4)c3c2c1 2.3%, CCOc1ccccc1CNCCNC(=O)c1nonc1N -2.82%, CCC(C)NC(=O)CSc1nc2cc3c(cc2c(=O)n1CCCCCC(=O)NCc1ccc2c(c1)OCO2)OCO3 (configuration not stated) 6.39%, Cc1ccc(CNC(=O)C2CCN(S(=O)(=O)c3ccc4[nH]c(=O)ccc4c3)CC2)cc1 -22.5%, Cc1ccccc1S(=O)(=O)Cc1ccc(C(=O)NC2CCC(C)CC2)o1 (configuration not stated) 2.51%, CCOc1ccc(NC(=O)Cn2c(=O)n(-c3ccccc3)c(=O)c3ccc(C(=O)NCc4ccc5c(c4)OCO5)cc32)cc1 24%, COc1cccc2cc(C(=O)Nc3ccc(F)c(F)c3)c(=O)oc12 -22.9%, O=C(Cn1c(=O)n(Cc2cccs2)c(=O)c2cccnc21)Nc1ccc(F)cc1 -8.6%, CC1(C)C(=O)N(CC(=O)Nc2cccc(F)c2)c2ccc(S(=O)(=O)N3CCCCC3)cc21 -0.851%, Cc1cc(-c2ccc(C)c(S(=O)(=O)NC3CCCCC3)c2)on1 18.1%, CCOc1ccc(-n2ccnc2SCC(=O)Nc2nc3ccc(C)cc3s2)cc1 3.68%, CCCCCSc1nnc(-c2ccc(Br)cc2)o1 5.57%, Cc1ccc(Cl)cc1-n1c(=O)c2sc3ccccc3c2n(Cc2ccccc2)c1=O 1.85%, O=C(Nc1cccc(F)c1)[C@H](CSCc1ccccc1)N1Cc2ccccc2C1=O 4%, COc1ccc(NC(=O)C2CCN(S(=O)(=O)c3ccc4[nH]c5c(c4c3)CCCCC5)CC2)cc1 4.25%, CCOc1ccc(NC(=O)Cn2cc(S(=O)(=O)NC)c(S(=O)(=O)NC)c2)cc1 -3.03%, Cn1c(=O)c(Oc2ccc(F)cc2F)cc2cnc(NC3CCOCC3)nc21 -20.3%, CC(C)c1ccc(-c2nc(C(N)=O)c3c(n2)n(-c2ccc4c(c2)OCO4)c(=O)n3C)cc1 21.5%, CC(C)CCN1C(=O)c2ccccc2CC1(C)C(=O)NC1CCC(C)CC1 (configuration not stated) 6.39%, Cc1ccc(NC(=O)C2CCCN(c3ncnc4onc(-c5ccc(F)cc5)c34)C2)c(Cl)c1 (configuration not stated) -5.3%, CCCCOc1cccc(C(=O)Nc2cccc(-c3nc4ncccc4o3)c2C)c1 4.71%, C=C1c2cccc(O)c2C(O)=C2C(=O)[C@@]3(O)C(O)=C(C(N)=O)C(=O)[C@@H](N(C)C)[C@@H]3[C@@H](O)[C@H]12 -4.3%, Cc1cccc(N2CCN(C(=O)CN3C(=O)COc4ccc(S(=O)(=O)N5CCCCCC5)cc43)CC2)c1C -14.5%, CCC(C)NC(=O)Cn1ccc2cc(S(=O)(=O)N3CCCCC3)ccc21 (configuration not stated) -3.41%, CCC1CN(C(=O)NCc2ccc(C)cc2)c2ccccc2O1 (configuration not stated) -0.921%, CCCCNC(=O)C(Cc1ccccc1)NS(=O)(=O)c1ccc2c(c1)c(=O)n(C)c(=O)n2C (configuration not stated) -0.132%, CCn1c(=N)c(C(=O)NCc2ccccc2)cc2c(=O)n3cc(C)ccc3nc21 -24%, Cc1nc2ccccc2c(=O)n1-c1ccc(NC(=O)c2cccc([N+](=O)[O-])c2)cc1 -2.94%, COc1ccc(Cn2ccc3nc(C)c(C(=O)Nc4cc(C)cc(C)c4)cc3c2=O)cc1 2.06%, Cc1ccc(C)c(NC(=O)c2cc(S(=O)(=O)N3CCCc4ccccc43)ccc2F)c1 7.93%, CCOC(=O)c1ccc(NS(=O)(=O)c2ccc(-c3cc(C)no3)cc2)cc1 13.4%, Cc1cc2c(C(C)C)c(O)c(O)c(C=O)c2c(O)c1-c1c(C)cc2c(C(C)C)c(O)c(O)c(C=O)c2c1O -13.4%, CCCC(O)c1nc2ccccc2n1Cc1ccccc1OC (configuration not stated) 2.89%, COc1cc(NC(=O)CN2c3ccccc3S(=O)(=O)c3ccccc32)cc(OC)c1 13.2%, CCC1CN(C(=O)N2CCC(C(=O)NCCc3ccccc3Cl)CC2)c2cc(C)ccc2O1 (configuration not stated) -10.1%, Cc1ccc(C(=O)CSc2nc(-c3ccccc3)nc3c2CCCC3)c(C)c1 -11.7%, Cc1cccc(C(C)C)c1NC(=O)C1CCCN1S(=O)(=O)c1cccc2nsnc12 (configuration not stated) -0.197%, CCOCCCn1c(SCC(=O)OCC)nc2c(sc3ccccc32)c1=O -17.8%, COCCNC(=O)CSc1nc(-c2cc(OC)c(OC)c(OC)c2)[nH]c1-c1ccc(Cl)cc1 -0.233%, O=S(=O)(c1ccccc1)c1nnn2c1nc(NC1CCCCC1)c1sccc12 -5.73%, CNC(=O)C1CCC(Cn2c(=O)c3sccc3n(CC(=O)Nc3ccc(C)c(C)c3)c2=O)CC1 (configuration not stated) -5.37%, COc1ccc(CCNC(=O)C2CCC(CNS(=O)(=O)c3ccc(C)cc3)CC2)cc1OC (configuration not stated) 8.47%, CCCCn1cc(S(=O)(=O)c2ccc(OC)cc2)c(=O)c2cc(CC)ccc21 0.244%, O=C(O)CCCCn1c(SCC(=O)Nc2ccccc2C(F)(F)F)nc2ccsc2c1=O 1.98%, Cc1ccc(CN(C(=O)c2ccccc2)c2ccccn2)o1 0.862%, Cn1c(=O)c2c(SCC(=O)Nc3ccccc3C(F)(F)F)nc(C3CCCC3)nc2n(C)c1=O -3.52%

outcome, inactive:
CCCn1ccc2c(OCC(=O)Nc3cc(C)ccc3C)cccc2c1=O, CCCCn1cc2c(c1-c1ccccc1Br)c(=O)n(C)c(=O)n2C, COc1cccc(C(=O)N2c3nc(-c4ccco4)nn3C3(CCCCC3)[C@@H]3CCCC[C@@H]32)c1, CCc1nn(C(C)C(=O)N2CCN(c3cccc(C(F)(F)F)c3)CC2)c(=O)c2cc3occc3n12 (configuration not stated), COc1cc(OC)c(NC(=O)CC(c2cccs2)N2Cc3ccccc3C2=O)cc1Cl (configuration not stated), Cc1nc2nc[nH]n2c(=O)c1CCC(=O)Nc1ccc(F)cc1, Cc1nn(-c2ccccc2)c2c1N(CC(=O)N1CCN(c3ccc(F)cc3)CC1)C(=O)CS2, CCOc1cc(-c2nnc(SCC(=O)NC3CCCC3)nc2-c2ccc(OC)c(OCC)c2)ccc1OC, O=C(CSc1nccn1C1CCCC1)Nc1ccc(C(F)(F)F)cc1, CCOC(=O)C1=C(C)NC(=O)NC1c1cn(-c2ccccc2)nc1-c1ccc(OCC)cc1 (configuration not stated), CSc1ncc(C(=O)N2CCN(c3cc(C)ccc3C)CC2)c(C)n1, CCOc1ccc(-c2ncnn2-c2sc3c(c2C#N)CCCCC3)cc1, CC(C)c1ccc(N2C(=O)CS(=O)(=O)C23C(=O)N(Cc2cccc(F)c2)c2ccccc23)cc1 (configuration not stated), Cc1oc(-c2ccc(C(=O)NCc3ccc(Cl)cc3)cc2)nc1CS(=O)(=O)c1ccccc1, CSc1ncc(C(=O)Nc2c(C)cccc2C)c(-c2ccccc2)n1, COc1ccccc1CCNC(=O)c1ccc(-c2nc(CSc3ccc(C)cc3)c(C)o2)cc1, Cc1cc(C)c(OCC(=O)N(Cc2ccco2)Cc2ccco2)c(C)c1, Cc1ccc(Nc2nnc(-c3ccc(C)c(S(=O)(=O)N4CCN(C)CC4)c3)c3ccccc23)cc1
